Data published in the supplement of paper PMC10126150.
Sequences with one replicate were seen in a single cluster, so their values are uncertain.

Tested on: ATP
Test: switch fluorescence ratio, 500 uM ATP over buffer (Cy3 cluster intensity, sum of 5 cycles each) (fold (ratio)); higher = stronger signal-on switching upon ATP binding; sequences stand for … in TCGTCGGCAGCGTCAGATGTGTATAAGAGACAGTTTTTTTTTTTTTTTTTTTTTTTTT…TC
Details: aptamer strand: ATP DNA aptamer (quencher-CACCTGGGGGAGTATTGCGGAGGAAGG + anchor), 100 nM annealed; ATP concentration: 500 uM; one replicate
Procedure, shortened: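 Five buffer/ATP imaging cycles were run on Cy3-labelled switching-strand clusters on a modified Illumina MiSeq flow-cell, with NaOH stripping and re-annealing between cycles. In each cycle, clusters annealed to 100 nM quencher-labelled ATP aptamer were imaged in selection buffer, then after 15 min with 500 uM ATP at 22 °C. Per cluster, the fluorescence ratio is summed target-cycle over summed buffer-cycle Cy3 intensity, averaged per switch-domain sequence. Only clusters within 100-1000 RFU were kept.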
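Also: ATP exposure 15 min at 22 °C before imaging.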

Sequence | switch fluorescence ratio
ATAAAGGCGG | 0.964
TGGCTTTCTC | 1.11
GGTAGAGGAC | 1.06
AGGCTGGGCG | 0.988
ATTGAAAAG | 0.962
AGCTATGGAA | 0.99
CCGGCTCGCC | 1.04
AGGAGCATGT | 1
AGGTTGATTT | 1.04
CGGTTGCGG | 1.01
ATCTCGGTCT | 0.999
AACCGGGCAA | 2.61
AGGTCCCGCT | 0.981
GATACATATT | 1.01
TAGAAGATGG | 0.984
TGGACTAATT | 0.942
ACATTGTCCT | 1.05
GATTAATGGA | 1
TTTGGCGGTA | 0.981
CATGATGGGC | 1.07
TGGGTGTTCG | 1.04
GCAGTAAAGT | 0.943
TAGTGTTGCG | 1.01

Sequence | switch fluorescence ratio
TAGTTGCGCC | 1.07
CTAGGTTCCG | 1.05
CCGTGGGCTG | 1.03
ATCTGGTTTC | 1.01
GGTTGATTCG | 1.02
TTACCACACT | 1.03
GTGATGGCCC | 1.05
ACTGAAAATT | 1.02
TTAATATCTG | 0.997
TTGTATGTAT | 1.02
CGCCCTGAGG | 1.05
CAGGTAATAT | 1.03
GGGGCCCCCG | 0.962
GCCGGTATTG | 1
ACAATACATT | 1.12
CGTTTACCCC | 1.02
ATAGCGCGCG | 1.01
TGTTGTACGG | 1.03
AGGGTAGCT | 0.987
GGTATTGCCT | 1.01
TAGTATGATC | 1.04
GATTCTCCAC | 0.998
CAAGCTGGTG | 1.11

Sequence | switch fluorescence ratio
AATAGCTAGC | 0.98
CGTCTGGGCC | 0.991
CGTTTGGCCT | 1.06
ATAGGGGTTG | 1.01
CGGGGTAACG | 0.954
TCCTAATCTC | 0.992
AGATCGACTG | 0.989
AGGCGGATTG | 1.03
TTCACACAGG | 2.72
CACAGTTTTT | 1.03
ATGGGAGACG | 1.09
ATGGGTGGTC | 0.989
ATATCACGAC | 1.1
CAGTTAAAGT | 0.968
GGAAAGTATT | 0.972
ACTAGCCCAA | 1.05
ACCGGTCATA | 0.996
GTTATTGTTG | 0.982
GGTACCTAGC | 1.02
ATAAAGAAAA | 1.01
CACGATTTC | 1.05
GGATCGGCTA | 0.994
TTTATGGTAG | 0.987

Sequence | switch fluorescence ratio
GGGTATTTA | 1.02
CGCTGTAGGG | 1.01
TTGACGTCTG | 0.887
TGGCGGGTTG | 1.03
TGCACTAGCG | 0.987
AGATGTACAG | 0.998
GACGGTAGC | 1.06
CTGATATTT | 0.98
TATGACCCAG | 1
AGAACCTTCA | 2.71
AAATCACAA | 1.26
ATCGGCTCG | 1.01
CCGGGCGCCT | 0.995
TAGGTAAGCA | 1.01
CCTGATTGTA | 0.954
GGGCTGATGT | 1.01
ATGACAGGGA | 1.02
ACTGTAGGCC | 1.05
GACTTCACGT | 1.23
TTTGGCAACG | 1.02
TTAGGGCGTA | 0.985
TCTTCGAGAT | 1.1
CGTTTCGGGA | 0.993

Sequence | switch fluorescence ratio
GCAACATAGA | 0.973
ATATACTCGG | 1.04
AGGAGTCAC | 1
TGTTACAAAT | 1.07
CGTCGAGGGG | 1.01
ACAATTGGGT | 1.01
TGCGCTATTC | 2.52
GAAGTCTACA | 1.01
ATAAACCAGG | 1.39
TTTCACTTAC | 1.38
GATTTGTGGT | 0.966
GATGGTTCTT | 0.987
CGTCTACGAC | 1.04
GATCACTTTA | 1.05
TGTGGATTT | 1.03
ATTCAGGAG | 1.01
CCACGAGGTG | 2.85
CCGGGAAAAC | 1.06
TACTGTCTT | 0.986
AGTAATTGTT | 0.953
CCATGATTGG | 1.02
GGTCGAGCTC | 0.969
ATGTGTATTC | 1.02

Sequence | switch fluorescence ratio
TTAGTCGTAT | 0.979
CGAAACTGGT | 1.11
CTCTCTGAGC | 1.13
GGGAACTTTT | 0.956
AGGGGTGCGT | 0.995
CTTCGTTTTG | 1.02
CGCTGGAGGT | 0.976
GGACTGGAGT | 1
AGACTGGGCA | 1.01
ATAGCCCATT | 0.962
ATCGCTTTGT | 0.974
GGGCGACCGT | 0.999
CATTGACCTC | 1.07
GCGTATCCAC | 1.02
GGTTCAGACT | 0.958
AAATTTCGCT | 0.997
ACTACACTGG | 1.4
ACAGGATTG | 0.955
TCTGTGTGGA | 1.02
GAAATCCTTG | 1.05
GGAACCACTT | 1.01
ATTACAAGG | 1.02
CTTGCAGTCC | 1.19

Sequence | switch fluorescence ratio
CTAAGAAAGA | 1.04
AGGGCGGGAA | 1.02
CCGAACCTTT | 1.12
ACGTGATATG | 1.05
AATTACTGAT | 0.992
GTTCCGGTGC | 1.6
ATAGCCGATA | 1.08
AGTTCTGAAT | 1.02
CCCTTCCAAA | 1
TTCTTGGTAA | 1.04
CTCACTTAG | 1.08
ACTCGTTATT | 0.965
GCCTAAGGAC | 0.958
TCTTTTAAC | 0.999
GCGCAGCGAT | 1.14
TCATCGCCCT | 1.08
ATTGGTTAG | 0.976
GCTATACATA | 1.08
TCTACGTTAC | 2.5
